No constants are given. Whether binding was seen depends on the method and setting. In cells and extracts the contact can be indirect. Some entries that bind do so weakly or less than the wild type. For some assays here: Where a sequence is shown, tags or fusion partners need not be part of it.
T1: KCTD1-mVenus (human) (UniProt Q719H9)
T1 sequence: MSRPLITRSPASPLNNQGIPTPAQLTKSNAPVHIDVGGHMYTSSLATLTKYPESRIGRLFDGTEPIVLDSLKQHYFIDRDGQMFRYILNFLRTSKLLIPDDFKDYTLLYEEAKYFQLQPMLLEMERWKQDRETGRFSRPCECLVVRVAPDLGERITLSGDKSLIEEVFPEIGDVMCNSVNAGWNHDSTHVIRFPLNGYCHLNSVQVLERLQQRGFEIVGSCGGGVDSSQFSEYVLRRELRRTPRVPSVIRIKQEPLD

Amino acid sequences for entries named in this document (tags omitted).
UniProt Q06330: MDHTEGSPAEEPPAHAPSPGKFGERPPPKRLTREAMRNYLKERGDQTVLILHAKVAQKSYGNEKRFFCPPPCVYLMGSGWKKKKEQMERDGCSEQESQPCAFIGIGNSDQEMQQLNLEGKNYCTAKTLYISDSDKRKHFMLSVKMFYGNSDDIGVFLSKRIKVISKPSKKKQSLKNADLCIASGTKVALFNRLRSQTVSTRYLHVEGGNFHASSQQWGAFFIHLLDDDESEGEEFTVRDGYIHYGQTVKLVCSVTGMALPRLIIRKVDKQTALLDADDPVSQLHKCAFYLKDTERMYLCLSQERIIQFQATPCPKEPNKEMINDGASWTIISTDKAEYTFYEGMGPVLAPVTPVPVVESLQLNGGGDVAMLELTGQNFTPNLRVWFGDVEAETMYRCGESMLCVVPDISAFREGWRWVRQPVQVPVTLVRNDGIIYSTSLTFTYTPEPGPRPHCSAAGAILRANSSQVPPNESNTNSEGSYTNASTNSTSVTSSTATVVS
UniProt Q86X95: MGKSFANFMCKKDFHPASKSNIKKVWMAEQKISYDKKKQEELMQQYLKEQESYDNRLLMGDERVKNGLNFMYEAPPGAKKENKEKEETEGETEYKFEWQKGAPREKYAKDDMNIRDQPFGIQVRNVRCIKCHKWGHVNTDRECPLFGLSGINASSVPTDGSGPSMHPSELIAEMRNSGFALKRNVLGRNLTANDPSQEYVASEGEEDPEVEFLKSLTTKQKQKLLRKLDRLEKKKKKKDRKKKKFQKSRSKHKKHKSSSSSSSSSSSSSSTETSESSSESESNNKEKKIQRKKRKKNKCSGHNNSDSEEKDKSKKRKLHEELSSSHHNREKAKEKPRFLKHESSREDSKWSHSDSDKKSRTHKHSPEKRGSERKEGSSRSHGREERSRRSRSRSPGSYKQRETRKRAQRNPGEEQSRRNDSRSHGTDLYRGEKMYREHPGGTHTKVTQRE
UniProt Q92585: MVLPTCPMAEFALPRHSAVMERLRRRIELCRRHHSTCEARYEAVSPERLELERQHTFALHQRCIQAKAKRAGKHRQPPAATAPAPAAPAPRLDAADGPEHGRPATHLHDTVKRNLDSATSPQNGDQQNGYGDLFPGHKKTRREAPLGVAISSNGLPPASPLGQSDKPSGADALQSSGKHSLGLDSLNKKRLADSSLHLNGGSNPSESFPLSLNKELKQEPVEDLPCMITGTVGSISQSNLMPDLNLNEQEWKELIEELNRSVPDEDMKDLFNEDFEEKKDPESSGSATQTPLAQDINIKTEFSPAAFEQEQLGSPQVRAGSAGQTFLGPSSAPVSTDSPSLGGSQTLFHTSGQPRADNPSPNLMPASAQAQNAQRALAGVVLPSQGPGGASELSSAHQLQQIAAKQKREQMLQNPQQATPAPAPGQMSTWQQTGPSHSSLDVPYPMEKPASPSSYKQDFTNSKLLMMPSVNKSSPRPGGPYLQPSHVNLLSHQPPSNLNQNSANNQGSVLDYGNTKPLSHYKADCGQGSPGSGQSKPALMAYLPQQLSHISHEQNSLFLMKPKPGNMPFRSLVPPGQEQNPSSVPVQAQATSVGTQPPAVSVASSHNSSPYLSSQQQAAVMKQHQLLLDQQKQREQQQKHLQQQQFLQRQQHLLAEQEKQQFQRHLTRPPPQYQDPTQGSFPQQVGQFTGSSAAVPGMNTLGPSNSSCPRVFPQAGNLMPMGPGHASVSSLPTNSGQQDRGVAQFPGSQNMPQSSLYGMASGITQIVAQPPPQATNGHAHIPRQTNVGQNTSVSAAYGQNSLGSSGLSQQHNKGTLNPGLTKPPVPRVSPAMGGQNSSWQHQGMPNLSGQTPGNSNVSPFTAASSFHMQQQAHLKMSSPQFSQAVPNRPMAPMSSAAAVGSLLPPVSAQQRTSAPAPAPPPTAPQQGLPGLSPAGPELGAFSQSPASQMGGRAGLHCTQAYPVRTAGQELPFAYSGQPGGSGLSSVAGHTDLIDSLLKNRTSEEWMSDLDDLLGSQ
UniProt Q9NXV2: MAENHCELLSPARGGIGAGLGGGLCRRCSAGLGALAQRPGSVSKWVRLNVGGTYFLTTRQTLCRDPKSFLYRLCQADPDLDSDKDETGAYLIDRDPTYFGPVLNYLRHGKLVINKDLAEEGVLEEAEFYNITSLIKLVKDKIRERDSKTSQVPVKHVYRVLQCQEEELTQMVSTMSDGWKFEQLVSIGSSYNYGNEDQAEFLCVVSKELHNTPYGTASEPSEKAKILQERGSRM
UniProt Q92830: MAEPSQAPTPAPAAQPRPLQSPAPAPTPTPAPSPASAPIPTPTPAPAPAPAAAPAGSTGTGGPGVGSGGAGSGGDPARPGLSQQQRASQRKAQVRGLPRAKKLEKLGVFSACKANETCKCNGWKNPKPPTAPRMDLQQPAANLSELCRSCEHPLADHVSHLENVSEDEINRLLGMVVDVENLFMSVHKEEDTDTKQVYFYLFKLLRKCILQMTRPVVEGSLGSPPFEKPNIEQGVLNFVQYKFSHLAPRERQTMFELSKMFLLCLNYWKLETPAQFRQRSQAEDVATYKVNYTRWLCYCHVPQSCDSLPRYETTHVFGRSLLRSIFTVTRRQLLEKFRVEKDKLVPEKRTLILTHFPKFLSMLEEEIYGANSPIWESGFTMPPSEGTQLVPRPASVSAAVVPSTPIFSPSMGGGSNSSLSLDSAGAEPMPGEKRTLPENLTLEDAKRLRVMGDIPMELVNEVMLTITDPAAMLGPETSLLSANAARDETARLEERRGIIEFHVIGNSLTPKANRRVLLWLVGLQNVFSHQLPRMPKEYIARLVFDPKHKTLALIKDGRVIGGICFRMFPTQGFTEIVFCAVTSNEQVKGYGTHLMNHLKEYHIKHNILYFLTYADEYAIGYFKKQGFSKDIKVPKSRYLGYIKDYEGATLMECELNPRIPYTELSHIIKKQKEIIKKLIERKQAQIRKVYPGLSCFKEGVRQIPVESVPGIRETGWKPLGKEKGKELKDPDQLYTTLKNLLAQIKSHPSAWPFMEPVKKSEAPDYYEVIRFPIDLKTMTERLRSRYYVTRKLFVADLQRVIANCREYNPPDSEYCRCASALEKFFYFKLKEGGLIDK

T2: Fluc-KCTD1-flag (human) (UniProt Q719H9)
T2 sequence: T1 sequence

B1: RITA1-Nluc (protein, UniProt Q96K30 1-269)
chain: MKTPVELAVSGMQTLGLQHRCRGGYRVKARTSYVDETLFGSPAGTRPTPPDFDPPWVEKANRTRGVGKEASKALGAKGSCETTPSRGSTPTLTPRKKNKYRPISHTPSYCDESLFGSRSEGASFGAPRMAKGDAAKLRALLWTPPPTPRGSHSPRPREAPLRAIHPAGPSKTEPGPAADSQKLSMGGLHSSRPLKRGLSHSLTHLNVPSTGHPATSAPHTNGPQDLRPSTSGVTFRSPLVTSRARSVSISVPSTPRRGGATQKPKPPWK
B2: SKIP-Nluc (protein, UniProt Q13573 1-536)
chain: MALTSFLPAPTQLSQDQLEAEEKARSQRSRQTSLVSSRREPPPYGYRKGWIPRLLEDFGDGGAFPEIHVAQYPLDMGRKKKMSNALAIQVDSEGKIKYDAIARQGQSKDKVIYSKYTDLVPKEVMNADDPDLQRPDEEAIKEITEKTRVALEKSVSQKVAAAMPVRAADKLAPAQYIRYTPSQQGVAFNSGAKQRVIRMVEMQKDPMEPPRFKINKKIPRGPPSPPAPVMHSPSRKMTVKEQQEWKIPPCISNWKNAKGYTIPLDKRLAADGRGLQTVHINENFAKLAEALYIADRKAREAVEMRAQVERKMAQKEKEKHEEKLREMAQKARERRAGIKTHVEKEDGEARERDEIRHDRRKERQHDRNLSRAAPDKRSKLQRNENRDISEVIALGVPNPRTSNEVQYDQRLFNQSKGMDSGFAGGEDEIYNVYDQAWRGGKDMAQSIYRPSKNLDKDMYGDDLEARIKTNRFVPDKEFSGSDRRQRGREGPVQFEEDPFGLDKFLEEAKQHGGSKRPSDSSRPKEHEHEGKKRRKE

Molecular target: T1, KCTD1-mVenus (human)
Assay: co-IP; lysate of HEK293 cells transfected with HA-RBPJ and KCTD1-mVenus; IP with anti-GFP antibody and Dynabeads Protein G, 1 h, 4 °C; Western blot with anti-HA

| binding | Molecule |
| --- | --- |
| binds | HA-RBPJ (from UniProt Q06330 1-500) |

Molecular target: T2, Fluc-KCTD1-flag (human)
Assay: co-IP; IP-luminescence: lysate of HEK293 cells cotransfected with Fluc-KCTD1-flag and an Nluc-tagged protein; 300 μg lysate with anti-DYKDDDDK magnetic agarose, 2 h, 4 °C; PBS with 1% Triton X-100, 150 mM NaCl, 5 mM MgCl2; read-out Nluc and Fluc luminescence of IP and total lysate

| binding | Molecule |
| --- | --- |
| no binding | CIR1-Nluc (from UniProt Q86X95 1-450) |
| binds | Nluc-RBPJ (from UniProt Q06330 1-500) |
| no binding | MAML1-Nluc (from UniProt Q92585 1-1016) |
| binds | KCTD5-Nluc (from UniProt Q9NXV2 1-234) |
| no binding | KAT2A-Nluc (from UniProt Q92830 1-837) |
| no binding | B1 |
| no binding | B2 |

Reference: PMC12657730
